Measurements published in PubChem BioAssay AID504333 (National Center for Advancing Translational Sciences (NCATS), 2011).
Among all 360,000 compounds or so, about 16,000 (4.4%) were called active. Inconclusive means that the source gave no clear call. Such entries were picked first, then a sample of the others. Calls come from the whole dose curve; as a rule, active = well fitted inhibition curve with a large enough effect; inconclusive = small, poorly fitted or top-dose-only effect; inactive = no such curve, though single readings can be large or run the other way. A potency beside an inconclusive call is a rough fit, not a confirmed value.

Target: Bromodomain adjacent to zinc finger domain protein 2B (Homo sapiens) (UniProt Q9UIF8)
UniProt Q9UIF8, sequence (Q9UIF8 whole entry, looked up, the tested form may be a part): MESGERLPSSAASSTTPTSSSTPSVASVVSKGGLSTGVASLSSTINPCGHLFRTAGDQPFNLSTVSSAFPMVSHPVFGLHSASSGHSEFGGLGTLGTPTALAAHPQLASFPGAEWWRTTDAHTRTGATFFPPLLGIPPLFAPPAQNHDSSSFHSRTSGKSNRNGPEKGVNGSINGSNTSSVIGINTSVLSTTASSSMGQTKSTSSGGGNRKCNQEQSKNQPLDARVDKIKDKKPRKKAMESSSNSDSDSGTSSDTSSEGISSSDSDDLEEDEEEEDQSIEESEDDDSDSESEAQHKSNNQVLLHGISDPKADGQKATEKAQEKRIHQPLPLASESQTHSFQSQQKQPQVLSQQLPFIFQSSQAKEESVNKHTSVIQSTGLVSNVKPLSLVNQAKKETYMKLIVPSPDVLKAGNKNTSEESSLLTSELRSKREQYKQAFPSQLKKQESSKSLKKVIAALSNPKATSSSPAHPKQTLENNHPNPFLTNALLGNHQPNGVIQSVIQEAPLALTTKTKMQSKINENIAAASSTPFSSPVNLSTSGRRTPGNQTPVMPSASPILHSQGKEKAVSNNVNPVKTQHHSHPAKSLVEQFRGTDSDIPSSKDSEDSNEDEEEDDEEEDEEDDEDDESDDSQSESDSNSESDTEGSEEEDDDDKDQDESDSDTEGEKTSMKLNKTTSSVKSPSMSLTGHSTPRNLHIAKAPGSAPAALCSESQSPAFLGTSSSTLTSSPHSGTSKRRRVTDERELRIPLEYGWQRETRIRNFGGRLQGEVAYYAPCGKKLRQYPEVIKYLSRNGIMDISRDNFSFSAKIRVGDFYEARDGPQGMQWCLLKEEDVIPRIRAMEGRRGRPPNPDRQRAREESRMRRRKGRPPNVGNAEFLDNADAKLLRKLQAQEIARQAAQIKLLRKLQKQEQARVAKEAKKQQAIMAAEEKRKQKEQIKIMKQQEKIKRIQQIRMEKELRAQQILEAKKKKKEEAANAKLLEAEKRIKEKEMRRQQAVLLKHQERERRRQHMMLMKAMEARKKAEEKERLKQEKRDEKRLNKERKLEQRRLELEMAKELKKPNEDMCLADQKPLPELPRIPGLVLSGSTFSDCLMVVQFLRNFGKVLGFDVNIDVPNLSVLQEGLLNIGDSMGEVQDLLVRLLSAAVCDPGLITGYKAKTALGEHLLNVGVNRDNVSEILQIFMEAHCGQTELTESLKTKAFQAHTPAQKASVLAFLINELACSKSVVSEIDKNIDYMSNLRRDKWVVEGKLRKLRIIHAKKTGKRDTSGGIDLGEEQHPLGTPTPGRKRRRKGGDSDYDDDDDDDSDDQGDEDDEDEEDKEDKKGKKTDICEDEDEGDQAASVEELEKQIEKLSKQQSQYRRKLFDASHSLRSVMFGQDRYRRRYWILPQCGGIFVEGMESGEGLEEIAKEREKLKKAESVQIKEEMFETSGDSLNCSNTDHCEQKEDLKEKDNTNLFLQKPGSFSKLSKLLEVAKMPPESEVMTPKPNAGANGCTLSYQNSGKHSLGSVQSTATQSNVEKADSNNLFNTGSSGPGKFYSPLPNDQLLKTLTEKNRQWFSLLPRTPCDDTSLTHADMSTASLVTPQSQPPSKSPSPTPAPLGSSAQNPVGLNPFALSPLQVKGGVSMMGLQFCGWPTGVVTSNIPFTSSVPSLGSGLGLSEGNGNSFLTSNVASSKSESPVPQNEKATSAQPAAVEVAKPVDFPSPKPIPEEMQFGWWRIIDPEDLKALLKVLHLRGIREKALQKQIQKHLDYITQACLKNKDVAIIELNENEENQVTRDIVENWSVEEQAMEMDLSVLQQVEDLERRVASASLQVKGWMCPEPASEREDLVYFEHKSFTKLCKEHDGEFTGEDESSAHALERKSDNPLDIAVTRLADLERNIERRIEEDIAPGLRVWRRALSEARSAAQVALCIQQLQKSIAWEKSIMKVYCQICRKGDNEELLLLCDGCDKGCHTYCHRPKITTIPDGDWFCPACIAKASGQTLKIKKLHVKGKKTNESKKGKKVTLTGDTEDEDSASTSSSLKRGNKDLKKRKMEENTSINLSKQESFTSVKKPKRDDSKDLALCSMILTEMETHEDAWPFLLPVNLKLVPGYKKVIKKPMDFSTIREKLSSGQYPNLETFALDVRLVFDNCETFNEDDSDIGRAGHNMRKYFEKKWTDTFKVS
Experiment: qHTS Assay for Inhibitors of BAZ2B; note: nearly all actives have a fitted effect of over 60% in size
Conditions: AlphaScreen BAZ2B-H3K14Ac peptide displacement; series mostly up to 114 µM
In short: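 BAZ2B (50 nM) with biotin-H3(5-23)K14Ac peptide (50 nM) in PBS pH 7.4, 0.01% Tween-20, preformed 30 min, then compound 30 min at room temperature; top concentration 110uM. AlphaScreen streptavidin donor/nickel chelate acceptor beads (10 ug/mL final), 20 min dark, signal read.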
Potency is the fitted concentration of half-maximal effect; tags give direction and shape of the fitted curve.

SMILES	Potency
Cc1ccc(S(=O)(=O)c2nnn3c2nc(NCc2cccs2)c2sccc23)cc1	inconclusive: 89.1 µM [inhibitor, single point]
CCOc1c2ccccc2nn1CCOC	inactive
CN(C)c1cccc(C(=O)Nc2cccc(F)c2)c1	inconclusive: 56.2 µM [inhibitor, partial curve]
CCOC(=O)N1CCN(Cc2nc3cc(NC(=O)c4cccc(C)c4)ccc3n2C(C)C)CC1	inconclusive: 70.8 µM [inhibitor, single point]
c1cncc(-c2nc(-c3ccco3)cs2)c1	inconclusive: 89.1 µM [inhibitor, single point]
COc1ccc(C(=O)COC(=O)CN2CC(=O)Oc3ccccc32)cc1Br	active: 25.1 µM
COc1ccc2c(c1)Sc1ccccc1N2	active: 20 µM
Cc1cccc(C(=O)N2CCCC(c3nc(-c4ccc(C)o4)no3)C2)c1 (stereo not given)	inconclusive: 89.1 µM [inhibitor, single point]
Cc1cccc(CNC(=O)c2ccc3c(c2)c(C)c(C)n3Cc2ccccc2)c1	inconclusive: 79.4 µM [inhibitor, partial curve]
COc1ccccc1C1C=C(c2ccc(C(C)C)cc2)Nc2nnnn21 (stereo not given)	inactive
Cc1ccccc1-c1nc(CN2CCCC(C(=O)NCc3cccnc3)C2)c(C)o1 (stereo not given)	inconclusive: 89.1 µM [inhibitor, single point]
O=C(O[C@@H]1OC2COC(=O)c3cc(O)c(O)c(O)c3-c3c(cc(O)c(O)c3O)C(=O)O[C@@H]([C@H]1O)[C@@H]2O)c1cc(O)c(O)c(O)c1	active: 0.794 µM
CN(CC(=O)Nc1cccc(F)c1)C(=O)c1cccnc1Sc1ccccc1	inactive
Clc1ccc(-c2nnc(-c3cccnc3)o2)cc1	inactive
O=C(CN1CCN(c2ccccc2F)CC1)c1ccc(O)cc1O	inactive
Cc1csc(SCCn2c(N3CCN(c4ccccc4)CC3)nc3c2c(=O)[nH]c(=O)n3C)n1	inconclusive: 89.1 µM [inhibitor, single point]
Cc1nnc(NC(=O)C2CCN(S(=O)(=O)c3ccc(F)c(Cl)c3)CC2)o1	active: 31.6 µM
COc1ccc(NC(=O)O/N=C/c2ccc(N(C)C)cc2)cc1	inconclusive: 50.1 µM [inhibitor, partial curve]
COc1cccc(/C=N/NC(N)=S)c1OCc1cccc(Cl)c1	inconclusive: 44.7 µM [inhibitor, partial curve]
Cc1c(NC(=O)CCC(=O)N2CCOCC2)c(=O)n(-c2ccccc2)n1C	inactive
CCOc1ccc(NC(=O)CSc2oc(-c3ccccc3)nc2S(=O)(=O)c2ccc(Cl)cc2)cc1	inactive
O=C(c1nc2n(n1)C(c1ccc(Cl)cc1)C=C(c1ccccc1)N2)N1CCOCC1 (stereo not given)	inactive
COc1cc(Nc2nc(SCc3ccccc3Cl)nc3ccccc23)cc(OC)c1	inactive
COc1ccc(C(=O)/C=C/c2cn(CC(O)CN3CCc4ccccc43)c3ccccc23)cc1 (stereo not given)	inconclusive: 10 µM [inhibitor, full curve]
CCOc1cccc2sc(N(CCN(C)C)C(=O)c3cc4ccccc4cc3OC)nc12	inconclusive: 22.4 µM [inhibitor, single point]

SMILES	Potency
O=C(/C=C/c1ccccc1)N1CCN(c2c(Cl)cccc2[N+](=O)[O-])CC1	inconclusive: 25.1 µM [inhibitor, full curve]
CCOC(=O)c1c(C)[nH]c(C)c1C(=O)COC(=O)c1cccnc1SC	inactive
CCn1c(SCc2ccc(C#N)cc2)nnc1-c1ccc(S(=O)(=O)N2CCCCC2)cc1	inconclusive: 100 µM [inhibitor, single point]
CNC(=S)N/N=C(\C)c1cccc(C(F)(F)F)c1	inconclusive: 79.4 µM [inhibitor, single point]
COc1cc(C(C)=O)ccc1OC(=O)c1cc2cccc(OC)c2oc1=O	inactive
COc1cccc(CN2CCC(n3nccc3NC(=O)CCCc3ccccc3)CC2)c1O	inactive
Cc1ccc(C2=C/C(=C/c3cccs3)C(=O)O2)cc1	inconclusive: 28.2 µM [inhibitor, partial curve]
COc1ccccc1-c1nc2cc(Cl)ccc2c(=O)n1O	inconclusive: 89.1 µM [inhibitor, single point]
Cc1ccc2oc(=O)c3cc(C(=O)NCCCN4CCCCCC4)sc3c2c1	inconclusive: 79.4 µM [inhibitor, single point]
CC(C)Cn1cnc2c1c(=O)n(CC(=O)Nc1ccc3c(c1)OCO3)c(=O)n2Cc1ccccc1	inactive
CN1C(=O)/C(=C\c2ccco2)N=C1c1ccc(Cl)cc1Cl	inconclusive: 70.8 µM [inhibitor, partial curve]
O=C(c1ccccc1)c1c2c(cc3sc4ccccc4[n+]13)-c1cccc3cccc-2c13	inconclusive: 70.8 µM [inhibitor, single point]
Oc1ccccc1CNCC12CC3CC(CC(C3)C1)C2	inconclusive: 28.2 µM [inhibitor, partial curve]
Cc1cc(Cl)cc(C)c1OCCOCCNCc1ccccc1	inconclusive: 100 µM [inhibitor, single point]
O=C(Nc1nnc(-c2cccnc2)o1)c1cccc([N+](=O)[O-])c1	inconclusive: 89.1 µM [inhibitor, single point]
CC(=O)O[C@]1(C(C)=O)CC[C@H]2[C@@H]3C=C(Cl)C4=CC(=O)CC[C@]4(C)[C@H]3CC[C@@]21C	inconclusive: 8.91 µM [inhibitor, partial curve, poor fit]
COc1ccc(NC(=O)c2nc[nH]c2C(=O)N2CCC(C)CC2)cc1	inconclusive: 89.1 µM [inhibitor, single point]
Cc1cc(C)cc(NC(=S)NCC2CCCO2)c1 (stereo not given)	inactive
CCCCn1c(N)c(N(CC(C)C)C(=O)c2ccc3c(c2)NC(=O)C(C)S3)c(=O)[nH]c1=O (stereo not given)	inactive
CN(Cc1ccon1)C(=O)CC1C(=O)NCCN1Cc1ccccc1C(F)(F)F (stereo not given)	inactive
COc1ccc(C2=NOC(C(=O)N3CCN(C(=O)c4ccco4)CC3)C2)cc1OC (stereo not given)	inconclusive: 89.1 µM [inhibitor, single point]
CCCOc1ccc2nc(C)c(CCC)c(SC(=N)N)c2c1	inconclusive: 79.4 µM [inhibitor, single point]
COc1cccc(C2N(Cc3ccccc3)C(=O)C2(F)F)c1OC (stereo not given)	inactive
CCOC(=O)c1cc([N+](=O)[O-])c([N+](=O)[O-])cc1NC(C)=O	inactive
CC1CCCN(CCCNC(=O)c2ccc3c(c2)N(Cc2ccc(Cl)cc2)C(=O)c2ccccc2S3(=O)=O)C1 (stereo not given)	inconclusive: 63.1 µM [inhibitor, partial curve, poor fit]

SMILES	Potency
Nc1ccccc1Nc1ccccc1	active: 44.7 µM
Cc1cc(OC(C)C(=O)N(Cc2ccc(N(C)C)cc2)Cc2ccco2)ccc1Cl (stereo not given)	active: 12.6 µM
CC(=O)c1c(C)[nH]c(C(=O)OCC(=O)Nc2ccc(Cl)c(S(=O)(=O)N(C)C)c2)c1C	active: 70.8 µM
Cc1cc(C)nc(Sc2nc(Cl)nc(N(c3ccccc3)c3ccccc3)n2)n1	inconclusive: 89.1 µM [inhibitor, single point]
CCC(C)Nc1c([N+](=O)[O-])cc(C)cc1[N+](=O)[O-] (stereo not given)	active: 31.6 µM
CCOC(=O)c1c(NC(=O)CSc2cn(CCNC(=O)c3ccc(OC)cc3)c3ccccc23)sc2c1CCCC2	inconclusive: 31.6 µM [inhibitor, partial curve]
COc1cccc2cc(C(=O)NCc3ccccc3)c(=N)oc12	inconclusive: 89.1 µM [inhibitor, partial curve]
N=C1S/C(=C\c2ccco2)C(=O)N1c1ccc2c(c1)OCO2	active: 56.2 µM
CCN1CCCC(OC(=O)c2cc(-c3ccccc3Cl)nc3ccccc23)C1 (stereo not given)	inconclusive: 70.8 µM [inhibitor, partial curve]
Cc1ccc2c(c1)N(C(=O)Nc1cccc3c1CCCC3)CCO2	inactive
Cc1cccc(Nc2nc(N)c([N+](=O)[O-])c(N3CCCC(C)C3)n2)c1 (stereo not given)	active: 39.8 µM
O=C(NCCc1ccccc1)c1ccc(Nc2nc3ccccc3n3nnnc23)cc1	inactive
CCc1nnc(NC(=O)CCC(=O)NC2CC2)s1	inconclusive: 89.1 µM [inhibitor, single point]
O=C(CNCc1ccccc1Cl)NCc1ccco1	active: 20 µM
Cc1nnc(SCc2nnc(-c3cccs3)o2)s1	inactive
CCOc1ccccc1NC(=O)CN1CCCCCC1	active: 50.1 µM
CC(=O)Nc1nc(-c2ccc(Cl)cc2)nc(C)c1C(C)=O	inconclusive: 89.1 µM [inhibitor, single point]
COc1ccc(NC(=O)C(NC(C)=O)C(=O)NCc2ccc(F)cc2)cc1 (stereo not given)	inactive
COc1cc(C)c(S(=O)(=O)n2nnc3ccccc32)cc1C	inconclusive: 89.1 µM [inhibitor, single point]
O=C(O)c1ccc(N/N=C/c2cn(-c3ccccc3)nc2-c2cccs2)cc1	active: 79.4 µM
C=CCSc1n[nH]c(-c2ccc(OCCCC)cc2)n1	inactive
Cc1c(NC(=O)C(C)OC(=O)CNC(=O)c2ccccc2)c(=O)n(-c2ccccc2)n1C (stereo not given)	inactive
COc1ccc(O)c(C2=Nc3ccccc3N=C(c3ccccc3)C2)c1	inconclusive: 89.1 µM [inhibitor, single point]
CCOC(=O)/C(C#N)=C/c1ccc(OC(=O)c2ccccn2)cc1	active: 4.47 µM
Cc1ccc(/C(O)=C/C(=O)C(=O)NC23CC4CC(CC(C4)C2)C3)cc1	inconclusive: 79.4 µM [inhibitor, single point]
